# Experimental data published in the supplement of paper PMC8728848.
# Some of the results follow.
# How the values were obtained:
# Assay in all cases: glycan array binding signal (z-score within array); higher = stronger binding
# Details in all cases: glycan notation: IUPAC condensed, linker removed
# [1] = molecular target: Gal(b1-4)GlcNAc(b1-3)Gal(b1-4)GlcNAc(b1-3)[Gal(b1-4)GlcNAc(b1-3)Gal(b1-4)GlcNAc(b1-6)]GalNAc
# Outline: (§1)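 Glycan array data came from 3228 arrays in the Consortium for Functional Glycomics database, and only arrays with an available protein sequence were kept. Glycan names were put into IUPAC-condensed notation, and columns mapping to the same glycan were averaged. The binding signal is a within-array Z-score, averaged across arrays of one protein sequence run at different concentrations or buffers and across linkers. A negative Z-score can be read as non-binding.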
# [2] = molecular target: Gal(b1-4)GlcNAc(b1-3)Gal(b1-4)GlcNAc(b1-6)[Gal(b1-3)]GalNAc
# Outline: as §1
# [3] = molecular target: Gal(b1-4)GlcNAc(b1-3)Gal(b1-4)[Fuc(a1-3)]GlcNAc(b1-3)Gal(b1-4)[Fuc(a1-3)]GlcNAc
# Outline: as §1
# [4] = molecular target: Gal(b1-4)GlcNAc(b1-3)GalNAc
# Outline: as §1
# [5] = molecular target: Gal(b1-4)GlcNAc(b1-3)[Fuc(a1-3)GlcNAc(b1-6)]Gal(b1-4)Glc
# Outline: as §1
# [6] = molecular target: Gal(b1-4)GlcNAc(b1-3)[Gal(b1-4)GlcNAc(b1-6)]Gal(b1-4)GlcNAc
# Outline: as §1
# [7] = molecular target: Gal(b1-4)GlcNAc(b1-3)[GlcNAc(b1-6)]Gal(b1-4)GlcNAc
# Outline: as §1
# [8] = molecular target: Gal(b1-4)GlcNAc(b1-6)Gal(b1-4)GlcNAc
# Outline: as §1
# [9] = molecular target: Gal(b1-4)GlcNAc(b1-6)GalNAc
# Outline: as §1
# [10] = molecular target: Gal(b1-4)GlcNAc(b1-6)[Gal(b1-3)]GalNAc
# Outline: as §1
# [11] = molecular target: Gal(b1-4)GlcNAc(b1-6)[Gal(b1-4)GlcNAc(b1-3)]GalNAc
# Outline: as §1
# [12] = molecular target: Gal(b1-4)GlcNAc6P
# Outline: as §1
# [13] = molecular target: Gal(b1-6)Gal
# Outline: as §1
# [14] = molecular target: Gal3S(b1-3)GalNAc
# Outline: as §1
# [15] = molecular target: Gal3S(b1-3)GlcNAc
# Outline: as §1
# [16] = molecular target: Gal3S(b1-3)[Fuc(a1-4)]GlcNAc
# Outline: as §1
# [17] = molecular target: Gal3S(b1-4)Glc
# Outline: as §1
# [18] = molecular target: Gal3S(b1-4)Glc6S
# Outline: as §1
# [19] = molecular target: Gal3S(b1-4)GlcNAc
# Outline: as §1
# [20] = molecular target: Gal3S(b1-4)[Fuc(a1-3)]Glc6S
# Outline: as §1
# [21] = molecular target: Gal3S(b1-4)[Fuc(a1-3)]GlcNAc
# Outline: as §1
# [22] = molecular target: Gal3S(b1-4)[Fuc(a1-3)]GlcNAc6S
# Outline: as §1
# [23] = molecular target: Gal3S4S(b1-4)GlcNAc
# Outline: as §1
# [24] = molecular target: Gal3S6S(b1-4)GlcNAc
# Outline: as §1
# [25] = molecular target: Gal3S6S(b1-4)GlcNAc6S
# Outline: as §1
# [26] = molecular target: Gal4S(b1-4)GlcNAc
# Outline: as §1
# [27] = molecular target: Gal4S6S(b1-4)GlcNAc
# Outline: as §1
# [28] = molecular target: Gal6P(b1-4)GlcNAc
# Outline: as §1
# [29] = molecular target: Gal6S(b1-3)GlcNAc
# Outline: as §1
# [30] = molecular target: Gal6S(b1-3)GlcNAc6S
# Outline: as §1
# [31] = molecular target: Gal6S(b1-4)Glc
# Outline: as §1
# [32] = molecular target: Gal6S(b1-4)Glc6S
# Outline: as §1
# [33] = molecular target: Gal6S(b1-4)GlcNAc
# Outline: as §1
# [34] = molecular target: Gal6S(b1-4)GlcNAc6S
# Outline: as §1
# [35] = molecular target: GalNAc(a1-3)Gal
# Outline: as §1
# [36] = molecular target: GalNAc(a1-3)GalNAc
# Outline: as §1
# [37] = molecular target: GalNAc(a1-3)GalNAc(b1-3)Gal(a1-4)Gal(b1-4)Glc
# Outline: as §1
# [38] = molecular target: GalNAc(a1-3)GalNAc(b1-3)Gal(a1-4)Gal(b1-4)GlcNAc
# Outline: as §1
# [39] = molecular target: GalNAc(b1-3)Gal
# Outline: as §1
# [40] = molecular target: GalNAc(b1-3)Gal(a1-4)Gal(b1-4)GlcNAc
# Outline: as §1
# [41] = molecular target: GalNAc(b1-3)Gal(a1-4)Gal(b1-4)GlcNAc(b1-3)Gal(b1-4)Glc
# Outline: as §1
# [42] = molecular target: GalNAc(b1-3)Gal(a1-6)Gal(b1-4)Glc
# Outline: as §1
# [43] = molecular target: GalNAc(b1-3)GalNAc
# Outline: as §1
# [44] = molecular target: GalNAc(b1-3)GlcNAc
# Outline: as §1
# [45] = molecular target: GalNAc(b1-4)Gal(b1-4)Glc
# Outline: as §1
binder,measurement,setting,value
"LSL-150 (Laetiporus sulphureus), Q7Z8V1 (protein) MTDIYIPPEGLYFRLLGFASRQVIFARNSPSPDVGLSPVNDQATDQYFSLIYGTGEHAGLYAIKSKATGKVLFSRRPAEPYVGQIDGDGRYPDNWFKIEPGKTYLSKYFRLVQPSTGTALVSRTHLQPYFWNHPQTEVFDDQYFTFLFEDHHHHHH",glycan array binding signal (z-score),[1],0.034
same,glycan array binding signal (z-score),[2],-0.172
same,glycan array binding signal (z-score),[3],-0.186
same,glycan array binding signal (z-score),[4],-0.204
same,glycan array binding signal (z-score),[5],-0.212
same,glycan array binding signal (z-score),[6],-0.185
same,glycan array binding signal (z-score),[7],-0.206
same,glycan array binding signal (z-score),[8],-0.206
same,glycan array binding signal (z-score),[9],-0.207
same,glycan array binding signal (z-score),[10],-0.203
same,glycan array binding signal (z-score),[11],-0.196
same,glycan array binding signal (z-score),[12],-0.208
same,glycan array binding signal (z-score),[13],-0.209
same,glycan array binding signal (z-score),[14],-0.2
same,glycan array binding signal (z-score),[15],-0.197
same,glycan array binding signal (z-score),[16],-0.2
same,glycan array binding signal (z-score),[17],-0.196
same,glycan array binding signal (z-score),[18],-0.193
same,glycan array binding signal (z-score),[19],-0.202
same,glycan array binding signal (z-score),[20],-0.182
same,glycan array binding signal (z-score),[21],-0.205
same,glycan array binding signal (z-score),[22],-0.2
same,glycan array binding signal (z-score),[23],-0.206
same,glycan array binding signal (z-score),[24],-0.193
same,glycan array binding signal (z-score),[25],-0.193
same,glycan array binding signal (z-score),[26],-0.188
same,glycan array binding signal (z-score),[27],-0.198
same,glycan array binding signal (z-score),[28],-0.21
same,glycan array binding signal (z-score),[29],-0.203
same,glycan array binding signal (z-score),[30],-0.208
same,glycan array binding signal (z-score),[31],-0.199
same,glycan array binding signal (z-score),[32],-0.196
same,glycan array binding signal (z-score),[33],-0.206
same,glycan array binding signal (z-score),[34],-0.204
same,glycan array binding signal (z-score),[35],-0.202
same,glycan array binding signal (z-score),[36],-0.205
same,glycan array binding signal (z-score),[37],-0.197
same,glycan array binding signal (z-score),[38],-0.205
same,glycan array binding signal (z-score),[39],-0.207
same,glycan array binding signal (z-score),[40],-0.183
same,glycan array binding signal (z-score),[41],-0.142
same,glycan array binding signal (z-score),[42],-0.202
same,glycan array binding signal (z-score),[43],-0.207
same,glycan array binding signal (z-score),[44],-0.203
same,glycan array binding signal (z-score),[45],-0.205
